Results as given in the supplement of paper PMC10126150.
Sequences with one replicate were seen in a single cluster, so their values are uncertain.

test system: ATP; assay: switch fluorescence ratio, 500 uM ATP over buffer (Cy3 cluster intensity, sum of 5 cycles each) (fold (ratio)); higher = stronger signal-on switching upon ATP binding; sequences stand for … in TCGTCGGCAGCGTCAGATGTGTATAAGAGACAGTTTTTTTTTTTTTTTTTTTTTTTTT…TC; settings: aptamer strand: ATP DNA aptamer (quencher-CACCTGGGGGAGTATTGCGGAGGAAGG + anchor), 100 nM annealed; ATP concentration: 500 uM; one replicate
Outline: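 Between each of five buffer/ATP cycles, the flow-cell was stripped with NaOH and re-annealed. Each cycle imaged Cy3-labelled switching-strand clusters, annealed to 100 nM quencher-labelled ATP aptamer on a modified Illumina MiSeq flow-cell, first in selection buffer and then after 15 min with 500 uM ATP at 22 °C. The fluorescence ratio is summed target-cycle over summed buffer-cycle Cy3 intensity per cluster, averaged per switch-domain sequence, with clusters outside 100-1000 RFU excluded.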
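Further: ATP exposure 15 min at 22 °C before imaging.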

Row | Sequence | switch fluorescence ratio
1 | AGGGTCCTTA | 0.964
2 | AGGGTCGTAC | 1.03
3 | AGGGTCTAAT | 0.969
4 | AGGGTGCCCC | 1.37
5 | AGGGTTGGA | 1.01
6 | AGGGTTTGCC | 0.977
7 | AGGGTTTTG | 0.983
8 | AGGTAAACCA | 1.05
9 | AGGTAACAG | 0.995
10 | AGGTAAGGCA | 1.01
11 | AGGTACTTT | 1.06
12 | AGGTAGAAAT | 1.05
13 | AGGTAGCAA | 3.4
14 | AGGTAGCGGG | 1.03
15 | AGGTAGTCCT | 0.956
16 | AGGTCATTTG | 1.02
17 | AGGTCCCATG | 1.01
18 | AGGTCCTAGA | 0.982
19 | AGGTCGAGTA | 1.01
20 | AGGTCGATTG | 0.976
21 | AGGTCGCGAT | 1.03
22 | AGGTCGGACT | 1
23 | AGGTCTAATT | 0.985
24 | AGGTCTCGTT | 1
25 | AGGTCTTATC | 1.05
26 | AGGTGAGGTC | 1.05

Row | Sequence | switch fluorescence ratio
27 | AGGTGATGGC | 0.955
28 | AGGTGCTTAT | 1.04
29 | AGGTTACGGT | 0.981
30 | AGGTTAGAGC | 0.941
31 | AGGTTCGGCC | 0.969
32 | AGGTTCTGTG | 0.981
33 | AGGTTGACGG | 0.99
34 | AGGTTGATAG | 0.985
35 | AGGTTGCCAG | 0.992
36 | AGGTTGGTGT | 0.987
37 | AGGTTGTTAC | 1.15
38 | AGGTTTACCG | 0.924
39 | AGGTTTATGA | 0.974
40 | AGGTTTTCCC | 0.967
41 | AGTAAAAGGA | 0.986
42 | AGTAAAGAGC | 0.959
43 | AGTAACAAAA | 0.999
44 | AGTAACAAAT | 0.999
45 | AGTAACGTAC | 1.92
46 | AGTAAGACGC | 0.992
47 | AGTAAGATCG | 0.93
48 | AGTAAGCTAC | 2.09
49 | AGTAATGATA | 1.01
50 | AGTACCGTCA | 0.988
51 | AGTACTAAAT | 0.939
52 | AGTAGCCTAG | 1.01

Row | Sequence | switch fluorescence ratio
53 | AGTAGGAAAC | 1.05
54 | AGTAGGATGT | 0.983
55 | AGTAGGATT | 1.01
56 | AGTAGGTCA | 1.04
57 | AGTAGTCGCA | 0.927
58 | AGTATACGCC | 1.03
59 | AGTATAGTCG | 1.06
60 | AGTATATATC | 0.966
61 | AGTATCCAAC | 0.996
62 | AGTATCCGTT | 0.973
63 | AGTATCGGAA | 0.989
64 | AGTATGAATA | 0.981
65 | AGTATGATTC | 1.04
66 | AGTATGGTAC | 1.08
67 | AGTATGTGGC | 1.05
68 | AGTATTAGAT | 1.04
69 | AGTATTTCTA | 0.964
70 | AGTCAACTCA | 1
71 | AGTCCACCAT | 1.03
72 | AGTCCCGGAC | 1.01
73 | AGTCCCTCTG | 1.07
74 | AGTCCGAATG | 1.06
75 | AGTCCGGGTG | 3.39
76 | AGTCCTAAGC | 1.05
77 | AGTCGGAAAT | 0.97
78 | AGTCGGCGTT | 1.01

Row | Sequence | switch fluorescence ratio
79 | AGTCGTACGC | 1
80 | AGTCTCAATA | 1.01
81 | AGTCTGGGCC | 0.998
82 | AGTCTTCTA | 0.971
83 | AGTGAAGATA | 0.995
84 | AGTGAAGTCC | 1.01
85 | AGTGAAGTGG | 1.03
86 | AGTGAATCGT | 0.968
87 | AGTGACCTTC | 1.41
88 | AGTGAGTGGC | 1.07
89 | AGTGATAAAG | 1.05
90 | AGTGCAC | 1.05
91 | AGTGCACCTC | 0.975
92 | AGTGCACTA | 0.987
93 | AGTGCAGGGG | 1.07
94 | AGTGCCACTG | 1.02
95 | AGTGCCTGAT | 1.03
96 | AGTGCCTGCA | 1
97 | AGTGCGACTC | 0.996
98 | AGTGGAACCC | 0.997
99 | AGTGGAACTA | 1.01
100 | AGTGGACAC | 1.01
101 | AGTGGACTTT | 0.944
102 | AGTGGAGAAC | 1.03
103 | AGTGGATACA | 0.99
104 | AGTGGGGTGC | 0.993

Row | Sequence | switch fluorescence ratio
105 | AGTGGTATCT | 1
106 | AGTGGTATGC | 1.05
107 | AGTGTACAC | 0.998
108 | AGTGTATAGT | 0.981
109 | AGTGTCAGC | 1.07
110 | AGTGTCTCG | 1.05
111 | AGTGTGGTAT | 0.985
112 | AGTGTGTAGG | 1.03
113 | AGTGTTAGGT | 1
114 | AGTTAAAGTA | 1.03
115 | AGTTAAATCC | 1.02
116 | AGTTAAGTAT | 0.972
117 | AGTTAAGTT | 1.01
118 | AGTTACAGAT | 1.05
119 | AGTTACCAAG | 1.05
120 | AGTTAGACAT | 0.957
121 | AGTTAGGCGA | 1
122 | AGTTAGTAGC | 0.963
123 | AGTTATCACC | 1.06
124 | AGTTATCCCG | 1.01
125 | AGTTATCCGC | 1.15
126 | AGTTCAGGAG | 1.05
127 | AGTTCCAG | 1.02
128 | AGTTCCGCTA | 2.17
129 | AGTTCCTATT | 1.03
130 | AGTTCGAGGT | 0.994

Row | Sequence | switch fluorescence ratio
131 | AGTTCTAACC | 1
132 | AGTTGACCGT | 1.03
133 | AGTTGAGGGA | 1.02
134 | AGTTGATAAC | 0.932
135 | AGTTGCACGC | 1.03
136 | AGTTGCAGTT | 1.05
137 | AGTTGGCCTA | 0.95
138 | AGTTGGCTC | 1
139 | AGTTGGGAGG | 0.975
140 | AGTTGTAGG | 1
141 | AGTTGTCTTT | 0.882
142 | AGTTTAGTCA | 1.01
143 | AGTTTATAGT | 1.06
144 | AGTTTCTTGG | 0.982
145 | AGTTTGTAAT | 0.976
146 | AGTTTTATAC | 1.08
147 | ATAAAGATTA | 0.96
148 | ATAAAGGAAA | 0.986
149 | ATAAAGGGAG | 0.991
150 | ATAAATAGTG | 0.999
151 | ATAAATTAGC | 1.01
152 | ATAACAGCCA | 1.03
153 | ATAACATATC | 1.04
154 | ATAACCTGTG | 1.03
155 | ATAACGAGGA | 1.02
156 | ATAACGAT | 0.981

Row | Sequence | switch fluorescence ratio
157 | ATAACGATTA | 1.04
158 | ATAACGCTTA | 1.03
159 | ATAACGTCGC | 0.913
160 | ATAACTAGTG | 1
161 | ATAACTTGC | 1.34
162 | ATAAGAGCCA | 1.03
163 | ATAAGCATAC | 4.04
164 | ATAAGCTATT | 0.996
165 | ATAAGCTCGA | 1.01
166 | ATAAGGTAAT | 1
167 | ATAAGTCGAA | 0.956
168 | ATAAGTGCGG | 0.989
169 | ATAATACTTC | 1.12
170 | ATAATGAGGC | 0.933
171 | ATAATGATAG | 0.971
172 | ATAATGCTCC | 1.45
173 | ATAATGTCGG | 0.996
174 | ATAATTTCCC | 0.968
175 | ATAATTTTCT | 1.01
176 | ATACAATCAC | 1.21
177 | ATACAATGGG | 1.04
178 | ATACACGTAC | 1.69
179 | ATACAGGCCT | 1.03
180 | ATACAGGGT | 1
181 | ATACAGTTGG | 1.01
182 | ATACATGATC | 1.02

Row | Sequence | switch fluorescence ratio
183 | ATACATGCCA | 1.03
184 | ATACATTTGA | 1.01
185 | ATACATTTGC | 0.989
186 | ATACCACTTT | 1.06
187 | ATACCAGAGC | 1.04
188 | ATACCAGTCT | 1.05
189 | ATACCCCCG | 1.39
190 | ATACCGGAAA | 1.04
191 | ATACCTACTT | 1.24
192 | ATACCTTCA | 2.56
193 | ATACGAAGCT | 0.998
194 | ATACGAATTG | 1.04
195 | ATACGAGTCT | 1
196 | ATACGCGACT | 1.43
197 | ATACGGAGTC | 0.953
198 | ATACGGCTAT | 1.07
199 | ATACGGGAAC | 1.01
200 | ATACGTCCTA | 1.04
201 | ATACGTCTGC | 0.988
